# Experimental data reported in paper PMC7819943, “Rice protein-binding microarrays: a tool to detect cis-acting elements near promoter regions in rice”.
# The other results are listed elsewhere or left out.
# Molecular target: T1, OsWOX13 (Oryza sativa, UniProt Q5QMM3 1-267)
# T1 sequence: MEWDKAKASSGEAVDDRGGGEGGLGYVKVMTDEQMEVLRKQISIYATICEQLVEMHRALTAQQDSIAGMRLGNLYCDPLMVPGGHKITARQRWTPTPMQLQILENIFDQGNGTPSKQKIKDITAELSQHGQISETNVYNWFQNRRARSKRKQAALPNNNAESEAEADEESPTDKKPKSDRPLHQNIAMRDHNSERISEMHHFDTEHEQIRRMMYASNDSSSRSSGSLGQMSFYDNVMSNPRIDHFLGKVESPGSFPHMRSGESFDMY
# Experiment: protein-binding microarray (RPBM); PBS, 2% BSA, 51.3 ng/ul salmon testes DNA, 50 uM zinc acetate, 200 nM TF, 25 C, 1 h; high values mean tight binding
# Settings: protein: recombinant; tags: N-terminal polyhistidine and DsRed monomer fusion (pET32a); label: CyDye5-dUTP incorporated in the synthesized complementary strand; 3' TTTTT single-stranded linker to array surface; dsDNA, one strand shown
# Procedure, shortened: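 Transcription factors, each fused N-terminally to a polyhistidine tag and DsRed, were expressed in E. coli BL21-CodonPlus and purified on Ni–NTA. A custom Agilent array was made double-stranded by primer extension with Cy5-dUTP and blocked with 2% BSA. It was incubated with 200 nM protein in PBS, 2% BSA, salmon testes DNA and 50 µM zinc acetate at 25 °C for 1 h, then washed. The binding signal is per-feature fluorescence intensity (arbitrary units) read on an Axon 4000B scanner.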
row,Sequence,binding signal
1,ACTGATTGTCACATTTGGGATTGCTTTAACCTGCAACATTCGGAGTCACCTAGTGCAG,39800 fluorescence intensity (a.u.)
2,CTTTATCCAAAACAATAATTGTTATCAAACTGGAGGAGTACGGAGTCACCTAGTGCAG,4040 fluorescence intensity (a.u.)
3,CTAATAATAAAACAAATTACATATTCCGCGTATAAACTGCCGGAGTCACCTAGTGCAG,8010 fluorescence intensity (a.u.)
4,AAGCAAGACCCCATCAATCAATCATCGGATACCACCTCTCCGGAGTCACCTAGTGCAG,17800 fluorescence intensity (a.u.)
5,CGCTGGTACCAACCCATCACTGATTGAGAGAAGGGAGAACCGGAGTCACCTAGTGCAG,12800 fluorescence intensity (a.u.)
6,CATTAATTTCATAGCTTGATTGATAGATTCTTAGTATTTTCGGAGTCACCTAGTGCAG,34300 fluorescence intensity (a.u.)
7,ATTTATTAATTATTAAAATTTGTTTATGTACCATATAAATCGGAGTCACCTAGTGCAG,11800 fluorescence intensity (a.u.)
8,AAACTTAAACTGCAATTTACTTTTCTGAGGCGGCTGTGGGCGGAGTCACCTAGTGCAG,13000 fluorescence intensity (a.u.)
9,CTTTTGATCATTTCCCACTCGTTTATTGTATTTGGAGTAACGGAGTCACCTAGTGCAG,3480 fluorescence intensity (a.u.)
10,CTCATGATTGCAGCTTGAATTGCAACTTTTCTAGCCCATACGGAGTCACCTAGTGCAG,22800 fluorescence intensity (a.u.)
11,CTAATTAATCGAAGTGATCGCGTAAAGTGGCCGACAGGATCGGAGTCACCTAGTGCAG,14200 fluorescence intensity (a.u.)
12,CATTAGATTTCGACTAACAATTTAATTCAGCACACAGAGTCGGAGTCACCTAGTGCAG,4310 fluorescence intensity (a.u.)
13,AGCCTAATTAGTCTATGATTAGCCATAAGTGCTACAGTAACGGAGTCACCTAGTGCAG,37500 fluorescence intensity (a.u.)
14,AGATAACATCTTTAATTAATTTGTTGTTAATTAACAATATCGGAGTCACCTAGTGCAG,36900 fluorescence intensity (a.u.)
15,ATATGATAGGATATGACATAATCTACTATACAAATCTAGACGGAGTCACCTAGTGCAG,7470 fluorescence intensity (a.u.)
16,TGAGATTGCGAGATGATAGATGCAGTAGTGCTGACGTTCTCGGAGTCACCTAGTGCAG,22900 fluorescence intensity (a.u.)
17,ATGACAGTATGACAGCTCGTCAATCAATGGTAATCACAGCCGGAGTCACCTAGTGCAG,25400 fluorescence intensity (a.u.)
18,TTTACTCATGATTACGCTAATTATTCCACTCAATTCTCACCGGAGTCACCTAGTGCAG,26100 fluorescence intensity (a.u.)
19,ACCATTAATAGATTGAGAGCGAATGAATTGGTGCCACGTGCGGAGTCACCTAGTGCAG,55000 fluorescence intensity (a.u.)
20,CGTCTGTTAGATACTTTGATTAAGTTAGCACCTGTTCTACCGGAGTCACCTAGTGCAG,4080 fluorescence intensity (a.u.)
21,AAATTAAGTAATCATTAATTCTTTTCTTATCATTTGATTCCGGAGTCACCTAGTGCAG,4980 fluorescence intensity (a.u.)

row,Sequence,binding signal
1,CTATAAACATGATTTAAATTTGATAACTAAGAACACACTTCGGAGTCACCTAGTGCAG,19200 fluorescence intensity (a.u.)
2,CTAAATATAATTGCTACTATGATATCGATAGATACGTTATCGGAGTCACCTAGTGCAG,15700 fluorescence intensity (a.u.)
3,TCTAATTAGCAAACGCATACACTTTTCCCTTTGCAAATTGCGGAGTCACCTAGTGCAG,35400 fluorescence intensity (a.u.)
4,GTTGAAGGATCTGGATGATTAGACGAGCGATGGATCAGGTCGGAGTCACCTAGTGCAG,3720 fluorescence intensity (a.u.)
5,TGTGTGACAGCAGACAGCTAATTATCAGTACACGTATATGCGGAGTCACCTAGTGCAG,15400 fluorescence intensity (a.u.)
6,ACAACAATCATCAGTATAAATAATTCAGTACAACTGAAATCGGAGTCACCTAGTGCAG,7340 fluorescence intensity (a.u.)
7,GAAATAATTGATTGAATCCTATTCTATCCTCTAAAATTCCCGGAGTCACCTAGTGCAG,30900 fluorescence intensity (a.u.)
8,ATCACATGACTGACGATACTGCGAAAATGACACAAAACAACGGAGTCACCTAGTGCAG,3260 fluorescence intensity (a.u.)
9,AGATGGGTGATGACGTGGACAGATTGACGTGTGGGGCCCACGGAGTCACCTAGTGCAG,10700 fluorescence intensity (a.u.)
10,ATACAATCAATTCTTGACTGAGAATAGCAGTAGAACTTTTCGGAGTCACCTAGTGCAG,20300 fluorescence intensity (a.u.)
11,TGATGATTTTGTATATTTATGTTCTTCCATCCATACCTTACGGAGTCACCTAGTGCAG,6980 fluorescence intensity (a.u.)
12,CATCGATTAATAATCTGGTTTGTTAATTCCCCTGGACTTACGGAGTCACCTAGTGCAG,4760 fluorescence intensity (a.u.)
13,TTGAAATTGTCAACACTACATTCTGAAATCGTCGTACACCCGGAGTCACCTAGTGCAG,3540 fluorescence intensity (a.u.)
14,ATAATTATTATTTATTTTCTTGTGACTTAGTTTATCACTACGGAGTCACCTAGTGCAG,10800 fluorescence intensity (a.u.)
15,ATTAATGTTTAATGTCATTTATATGAATCAAAAGAGAGAGCGGAGTCACCTAGTGCAG,6260 fluorescence intensity (a.u.)
16,CATCAAATAACTTTGATTTGATCTAACCTCTTAAAGACGTCGGAGTCACCTAGTGCAG,15200 fluorescence intensity (a.u.)
17,CCAAATTACAACAAATATAATTTTACTTAATCCAAAGTAACGGAGTCACCTAGTGCAG,8310 fluorescence intensity (a.u.)
18,GTTATTAATTGATTCTCTCCTGATTTTATTCTATAAATACCGGAGTCACCTAGTGCAG,18700 fluorescence intensity (a.u.)
19,GGCCTGATAATTAGTTAAATTTTCCGGCCCATACATAGGACGGAGTCACCTAGTGCAG,15600 fluorescence intensity (a.u.)
20,TTCCAATTTTGATGTGAACTAAACACACCCTATGAATGGACGGAGTCACCTAGTGCAG,3560 fluorescence intensity (a.u.)
21,ATGCCATCCAATCAAGCCACGACGATCCACAGCCATAGTGCGGAGTCACCTAGTGCAG,11500 fluorescence intensity (a.u.)
